# Test results reported in ChEMBL document CHEMBL4888484, “Replenishing the malaria drug discovery pipeline: Screening and hit evaluation of the MMV Hit Generation Library 1 (HGL1) against asexual blood stage Plasmodium falciparum ,using a nano luciferase reporter read-out” (2022).
# Hit rate of the full screen: of about 150,000 compounds, about 540 (0.36%) showed an effect of 50% or more. The list shows a part of the results.
# Tested on: Plasmodium falciparum
# Assay: Primary screen in NF54 nanoGlo assay, in single point, at 2uM, 72h; a lower Z score goes with more inhibition
# Type: functional, Erythrocyte
# Conditions: timepoint 72 hour
Compound,% Inhibition [%],Z score
Cc1nc(NC(=O)COC2CCCCC2)sc1C,-3,0.65
CCNC(=O)[C@@H]1CC[C@](C)(C(=O)Nc2onc(CC)c2C)C1(C)C,-17,1.56
CCCCS(=O)(=O)N1CC[C@H](CNc2nccc(C(F)F)n2)C1,-1,0.19
CC(C)c1ccc(O[C@@H](C)CNC(=O)N2CCC(O)(C3CC3)CC2)cc1,-1,0.08
FC(F)(F)c1ccc(N2CCC(c3nc4ccccc4[nH]3)CC2)nn1,-14,1.37
CN(C(=O)c1cn(C)nc1C(F)F)C1CN(c2ccc3nncn3n2)C1,2,-0.19
O=C(c1cnccn1)N1CCc2ncc(C(F)(F)F)cc2C1,-5,0.97
CCN1CCN([C@H]2CCN(c3ccnc4c(F)cc(Cl)cc34)C2)CC1,11,-1.82
O=c1c2ccccc2nnn1Cc1ccncc1,5,-0.66
CC(C)NC(=O)c1csc(COc2ccc3c(c2)[C@H](c2ccc(F)cc2)N(C(=O)c2ccco2)CC3)n1,-6,0.99
COc1c(Br)cccc1CNC(=O)C#Cc1ccccc1,5,-0.58
CCC(CC)C1CC(NC(=O)c2cccnc2C)CCO1 (stereo not given),-7,0.83
N#Cc1nccn1Cc1coc(-c2ccc(Br)cc2)n1,1,-0.14
Nc1ccc(OCc2n[nH]c(C3CC3)n2)cc1,-8,1.08
C=Cc1cc(OC)c(OCc2ccn(C(C)C)n2)c(OC)c1,-4,0.36
O=C(c1cccnc1Oc1ccc(F)cc1Br)N1CCCNCC1,-8,1.12
Cc1ccc(-n2ncc(Oc3ccc4c(c3)OCO4)c(Nc3ccc(C(=O)NCc4ccncc4)cc3)c2=O)cc1,6,-0.81
CCCc1cc(N2CCN(C(=O)Cc3ccc(F)cc3)CC2)nc2nnc(CC)n12,-15,1.92
O=C(N[C@H]1CC[C@@H]2CCC[C@@H]21)c1ncoc1C1CC1,-5,0.75
CC1CN(c2ncnc3c2ncn3CC2(O)CCOCC2)CC(C2CC2)O1 (stereo not given),-12,1.56
COC1CCC(NC(=O)c2ccnc3c2ncn3C)CC1 (stereo not given),-10,1.85
C#CC(C)(C)N1CCN(C(=O)OC(C)(C)C)CC1,4,-0.79

Compound,% Inhibition [%],Z score
CC1N[C@H](C(=O)O)Cc2c1[nH]c1ccccc21 (stereo not given in full),-11,1.01
O=C(c1cnccn1)N1CCC(Cc2n[nH]c(=O)n2-c2ccccc2F)CC1,2,-0.28
CN1C(=O)N[C@]2(CCN(c3ccccc3S(C)(=O)=O)C2)C1=O,-11,1.04
CCC(CC)(CO)CN(C)S(=O)(=O)c1cc(-c2ccn[nH]2)oc1C,3,-0.51
Cc1nc(N)nc(C)c1C(=O)N[C@H](CO)Cc1ccc(O)cc1,-2,0.15
Cc1cnc(NCc2ccc3nc(C)sc3c2)s1,2,-0.3
CNc1ccccc1C(=O)OC1OC(C)C(O)C(O)C1O (stereo not given),26,-2.96
Cn1cncc1-c1noc(C2CCC(c3ccccc3)CC2)n1 (stereo not given),-11,1.9
O=C(C[C@H]1CCS(=O)(=O)C1)Nc1nc2ccccc2s1,-9,1.14
CCC(C(=O)Nc1ncccc1C)(C(F)(F)F)C(F)(F)F,-9,1.69
Cc1noc(CN(C)c2nccc(N3CCN[C@@H]4CS(=O)(=O)C[C@@H]43)n2)n1,-16,2.21
COc1ccc(CN2CCCC23CCN(c2cccc(C)n2)CC3)cc1O,-4,0.82
O=C(Nc1ccsc1C(=O)NCc1ccccc1)c1cnccn1,3,-0.54
Cc1nc(-c2scnc2C)n(CC(C)(C)O)n1,-3,0.34
COC(=O)Nc1nc(-c2ccccc2)c(-c2ncc(C)c(OC)c2C)s1,-5,0.59
CCOc1ccc(CN2CC[C@H](CO)[C@H](N(C)C)C2)cc1,2,-0.34
Cc1c(C(=O)N2CCN(C3CCCCC3)CC2)n(C)c2ccc(F)cc12,4,-0.61
CC1(C)CNCc2cnn(-c3ccccc3F)c2C1,3,-0.5
COCCOCC(=O)N(Cc1ccccn1)c1ccc(Cl)cc1,-9,0.95
Cc1oc2ccn(Cc3cccc(F)c3)c(=O)c2c1C(=O)N1CCN(C(C)C)CC1,-20,2.9
CC[C@H](C)N(Cc1csc(COc2ccccc2OC)n1)C(=O)c1ccc(OC)cc1,-15,2.03
O=C([C@H]1C[C@H](Oc2ccccc2)CN1C(=O)Cc1cccc(F)c1)N1CCOCC1,-6,1.22

Compound,% Inhibition [%],Z score
Cc1cnc(CN(CC(C)C)c2cccc(O)c2)cn1,-15,1.71
Cn1ncc2c1CCCN(c1nccn3nc(C(F)(F)F)cc13)C2,-10,1.44
CCc1ncsc1N1C(=O)[C@@H](C)N(C)C1=O,-18,2.88
Cc1nc(C(=O)N[C@H](c2ccccc2)C2(CO)CCOCC2)no1,-4,0.49
CC1CC(NC(=O)Nc2cnn(C)c2)CCN1Cc1ccccc1 (stereo not given),-7,0.71
NC(=O)CCNC(=O)Nc1cccc(N)c1,24,-2.68
Cc1ccc(NC(=O)N(C)Cc2cnc(N)nc2)cc1C(C)C,-16,1.76
CCOc1ccc(CCNC(=O)CCCn2ccc3cc(S(=O)(=O)N4CCCC4)ccc32)cc1,13,-2.27
CC(C)NC(=O)c1ccc(NCCNC(=O)OC(C)(C)C)c(N)c1,1,-0.15
CN1CCC(NC(=O)c2cc(C3CC3)on2)C1c1ccccc1 (stereo not given),34,-3.9
CCCNC(=O)N1CCC[C@H](Oc2nc(CC)nc3c2CCOCC3)C1,-16,2.54
CCC(CC)c1nnc(NC(=O)CCCn2cnc3c(C)cccc3c2=O)s1,-2,0.43
CCCn1ccnc1-c1nccn1-c1ccccc1CCO,14,-1.88
Cc1ccc(C)c(C(=O)c2ccccc2C(=O)N2CCC3(CC2)NC(=O)NC3=O)c1,-7,1.37
COCC1(NC(=O)Nc2ccccc2-c2nnnn2C(C)C)CCC1,-1,0.11
c1ccc2c(c1)OC[C@@H](c1csc3ncnc(N4CCCCC4)c13)O2,-7,1.01
CCCN(CCO)C(=O)NCc1cc(C#N)ccc1F,-9,1.57
COc1ccc2c(c1)N(Cc1nc(C)cs1)CCO2,-23,2.33
Cc1ccc(-n2[nH]c(C(=O)N3CCO[C@@H](CC(F)(F)F)C3)cc2=O)cc1,1,-0.08
CC(C)(C)OC(=O)N1CCCCC1C(=O)N1CCOC(c2ccccc2)C1 (stereo not given),-11,1.71
O=C(Nc1ccccc1)NC1CCC2OCCOC2C1 (stereo not given),-3,0.57
CCN(CCOc1ccccc1F)C(=O)COc1cccnc1,7,-0.93

Compound,% Inhibition [%],Z score
Cc1cc(C(=O)N[C@@H](C)C2(N3CCOCC3)CCCC2)[nH]n1,-3,0.32
CCn1cnnc1CNc1ccccn1,-5,0.47
COc1ccccc1[C@@]1(CC(=O)N(C)Cc2nonc2C)CC(=O)N(C2CCCC2)C1=O,8,-1.16
Cc1ccc2c(c1)[nH]c(=O)c1c(C(=O)NCc3c(C)nn(C)c3C)nnn12,7,-1.26
CCC(NC(=O)c1c[nH]c2ccc(OC)cc2c1=O)[C@H]1C[C@@H](O)C1 (stereo not given in full),-17,3.31
C[C@@H](c1ccccc1)N(Cc1nc(C(=O)NCc2ccco2)co1)Cc1ccccc1C(F)(F)F,-9,1.26
C[C@@]1(CO)CN(C(=O)c2ccc(Cl)cc2)C[C@@H]2CN(C(=O)c3ccccc3)CCN21,5,-0.69
Cc1cnn([C@@H](C)CNC(=O)c2cncn2C)c1,8,-1.62
CC(C)c1ccc(CCC(=O)NC2CC3CCC2C3)cc1 (stereo not given),-10,1.14
Cc1ccc(CNC(=O)Cn2cnc3nc(N4CCCCC4)sc3c2=O)cc1,-5,0.98
CCOC(=O)c1noc2ncnc(NCCc3ccccc3)c12,2,-0.38
Cc1c(C(=O)NC[C@H]2COC3(CCCCCC3)O2)cnn1C,-15,2.85
COc1nc2c(cc1CNC(=O)[C@H]1CC13CCCC3)C(=O)N(C1CCCC1)C2,1,-0.24
O=C1[C@H](c2ccc(F)cc2)N(Cc2ccccc2)C(=O)CN1C1CCCCCC1,-1,0.22
CC(=O)N(CC(=O)N1CCc2sccc2[C@@H]1COc1ccc(C(C)C)cc1)CC1CC1,2,-0.27
Cc1ccc(-c2noc(CCN(C(=O)c3ccco3)C3CCCCC3)n2)cc1,-3,0.37
Cn1c2c(c(=O)n3ncc(C(=O)NC4CCCCC4)c13)CN(Cc1ccccc1)CC2,0,0.01
CCCN(C(=O)CC1CCN(C(=O)OC(C)(C)C)CC1)c1cccnc1,-8,0.84
COc1ccc(CNC(=O)N2CCN(c3c(C)nn(-c4ccccc4)c3C)CC2)cc1OC,-14,2.59
